# In all, about 310,000 compounds went through this assay and about 2,200 (0.71%) showed an effect of 50% or more. Effects have a minus sign here. This is one part of the list.
# Molecular target: human ether-à-go-go-related gene (hERG) potassium channel (human, UniProt Q12809)
# Assay: primary screen, population patch clamp on CHO cells stably expressing hERG
# human ether-à-go-go-related gene (hERG) potassium channel, sequence (Q12809 whole entry, looked up): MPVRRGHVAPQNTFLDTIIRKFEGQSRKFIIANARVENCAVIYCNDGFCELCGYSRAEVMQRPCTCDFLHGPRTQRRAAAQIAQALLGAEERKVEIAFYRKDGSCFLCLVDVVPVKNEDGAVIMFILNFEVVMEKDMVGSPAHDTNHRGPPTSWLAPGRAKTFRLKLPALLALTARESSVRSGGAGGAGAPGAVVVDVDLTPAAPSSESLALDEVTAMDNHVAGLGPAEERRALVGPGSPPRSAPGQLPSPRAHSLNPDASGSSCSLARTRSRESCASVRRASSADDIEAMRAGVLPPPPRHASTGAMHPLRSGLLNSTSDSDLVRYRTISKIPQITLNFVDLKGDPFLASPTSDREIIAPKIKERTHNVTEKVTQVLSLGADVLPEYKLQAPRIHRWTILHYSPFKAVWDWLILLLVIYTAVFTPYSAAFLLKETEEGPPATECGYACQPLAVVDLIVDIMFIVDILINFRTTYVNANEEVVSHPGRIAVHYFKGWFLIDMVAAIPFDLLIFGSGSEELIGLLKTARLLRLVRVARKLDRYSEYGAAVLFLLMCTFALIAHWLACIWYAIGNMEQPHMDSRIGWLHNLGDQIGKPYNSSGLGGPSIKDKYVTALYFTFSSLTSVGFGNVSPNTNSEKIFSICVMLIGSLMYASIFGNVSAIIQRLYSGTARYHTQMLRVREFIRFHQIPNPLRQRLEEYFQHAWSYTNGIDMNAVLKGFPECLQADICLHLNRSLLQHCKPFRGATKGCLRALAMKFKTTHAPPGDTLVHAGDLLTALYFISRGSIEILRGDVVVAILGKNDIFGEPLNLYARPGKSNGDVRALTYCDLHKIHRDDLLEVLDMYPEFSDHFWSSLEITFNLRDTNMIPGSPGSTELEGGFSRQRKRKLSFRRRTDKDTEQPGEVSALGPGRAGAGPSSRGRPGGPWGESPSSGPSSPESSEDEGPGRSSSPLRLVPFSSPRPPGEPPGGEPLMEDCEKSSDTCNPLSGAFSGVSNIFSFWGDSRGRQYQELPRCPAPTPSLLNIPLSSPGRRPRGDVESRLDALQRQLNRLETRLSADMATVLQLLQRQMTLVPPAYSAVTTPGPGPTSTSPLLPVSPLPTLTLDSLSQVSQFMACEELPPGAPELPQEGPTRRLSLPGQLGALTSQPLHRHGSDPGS
row,Compound,"hERG current change (%, negative = inhibition) at 1uM [%]"
1,Cc1cc(C)c2nc(N3CCCC(C(=O)NCCCN4CCOCC4)C3)sc2c1 (stereo not shown),3.78
2,CCN(C(=O)COC(=O)c1cc([N+](=O)[O-])ccc1N1CCOCC1)C1CCS(=O)(=O)C1 (stereo not shown),6.81
3,NC(=S)N/N=C/c1cn(-c2ccccc2)nc1-c1cccnc1,15.1
4,C#CC(CC)(CC)NC(=O)/C=C/C(=O)O,9.75
5,CN(CC(=O)Nc1ccccc1Cl)C(=O)CSc1ncc(C(F)(F)F)cc1Cl,12.1
6,O=C(Nc1nnc(-c2ccc(F)cc2)o1)C1CCCN1S(=O)(=O)c1cccs1 (stereo not shown),3.66
7,C=CCn1c(C)nnc1SCC(=O)Nc1nccs1,14.8
8,CN(Cc1nc(-c2cnccn2)no1)CC(O)c1ccccc1 (stereo not shown),7.88
9,CC(C)C(C(=O)Nc1ccc(N2CCOCC2)cc1)N1C(=O)c2ccccc2C1=O (stereo not shown),10
10,FC(F)(F)Oc1ccccc1-c1nnc(-c2cccc(C(F)(F)F)c2)o1,9.49
11,c1ccc(CCn2cnc3ccccc32)cc1,11.4
12,O=C(Nc1ccccc1)c1ccc(COc2ccccc2)cc1,14.5
13,COC(=O)c1ccccc1NC(=O)c1cnc2sccn2c1=O,15.6
14,CCC1(c2ccccc2)NC(=O)N(CC(=O)Nc2cc(Cl)ccc2N2CCN(C)CC2)C1=O (stereo not shown),-0.399
15,CC(C)(C)c1ccc(CNC(=O)c2ccc3c(c2)NC(=O)CO3)cc1,6.83
16,O=C(O)CCCCCNC(=O)/C=C/c1ccco1,6.43
17,Cl.O.O=C1C2CCCCN2C(=O)N1CCCCN1CCN(c2ccccc2Oc2ccccc2)CC1 (stereo not shown),-24.2
18,COCCN(C(=O)Cc1cccs1)C(C(=O)NC1CCCC1)c1cc(OC)c(OC)c(OC)c1 (stereo not shown),12.7
19,O=C(NCCc1c[nH]c2ccccc12)c1cc2sccc2n1Cc1ccccc1,4.65
20,COc1ccnc(Oc2ccc3ccccc3c2)c1C#N,6.98
21,CC(=O)Nc1ccc(NC(=O)C(C)OC(=O)c2ccc3c(c2)OCCO3)cc1 (stereo not shown),14.1
22,Cc1ccc(C)c(C(C)NC(=O)c2ccncc2)c1 (stereo not shown),0.292

row,Compound,"hERG current change (%, negative = inhibition) at 1uM [%]"
1,CC(NC(=S)Nc1ccccc1C(F)(F)F)C1CC2CCC1C2 (stereo not shown),-6.39
2,O=C(CN1CCN(C(=O)CNC(=O)c2ccc3c(c2)OCO3)CC1)Nc1ccccc1Cl,7.42
3,CCn1cc(S(=O)(=O)c2ccc(C)cc2)[nH]c1=O,16.1
4,Cc1ccccc1/C=N/NC(=O)Cn1cnc([N+](=O)[O-])n1,3.03
5,COc1ccc(CCNC(=O)CNCCc2ccc(F)cc2)cc1.O=C(O)C(=O)O,1.57
6,C=CCC1NS(=O)(=O)OC2CCCCC12 (stereo not shown),6.75
7,C/C(=N\NC(=O)c1cnccn1)c1ccc([N+](=O)[O-])cc1,8.14
8,COc1ccccc1CN(C(=O)Cc1cccs1)C(C(=O)NC1CCCC1)c1ccncc1 (stereo not shown),3.49
9,CC(=O)C1=C(C)Nc2ncnn2C1c1ccccc1F (stereo not shown),11.1
10,Fc1ccc(OCCOCCN2CCNCC2)cc1.O=C(O)C(=O)O,10.4
11,CCC(=O)Nc1ccc(Oc2ccc3c(c2)C(=O)NC3=O)cc1,15.8
12,Cc1ccc(-n2[nH]c(C)c(/C=N/N3C(=O)c4cccc5cccc(c45)C3=O)c2=O)cc1,13.9
13,CCOC(=O)Cn1cc(-c2ccccc2)nn1,-4.75
14,O=C(CCC(=O)c1cccs1)NCc1ccncc1,13
15,O=C(O)CCCCCNS(=O)(=O)c1ccc2c(c1)OCCO2,8.35
16,O=C(NC1CS(=O)(=O)CC1NCc1ccco1)c1ccccc1 (stereo not shown),2.64
17,CCOC(=O)C1=C(N)n2c(s/c(=C/c3ccco3)c2=O)=C(C(=O)OC)C1c1ccco1 (stereo not shown),6.24
18,COC(=O)C(C)Sc1nnc(Cc2cc(=O)[nH]c(=O)[nH]2)n1-c1cc(C)ccc1C (stereo not shown),9.21
19,Nn1c(SCc2ccc(Br)cc2)nnc1-c1ccccn1,14.5
20,Cc1ccc(NC(=O)CC2OC(=O)c3ccccc32)cc1S(=O)(=O)N1CCOCC1 (stereo not shown),4.7
21,CN1CCN(NC(=O)c2ccc(S(=O)(=O)N3CCCCCC3)cc2)CC1.Cl,3.69
22,CC(C)CNc1nnnc2c1sc1nc(N3CCOCC3)c3c(c12)CC(C)(C)SC3,11.5

row,Compound,"hERG current change (%, negative = inhibition) at 1uM [%]"
1,CC(NS(=O)(=O)c1ccc([N+](=O)[O-])cc1)C(c1cccs1)N1CCOCC1 (stereo not shown),13.9
2,COc1ccc(C(C#N)(CCC#N)CCC#N)cc1OC,-10
3,Cc1cc(=O)oc2cc(NC(=O)c3ccccc3C(=O)O)ccc12,16.8
4,Cc1ccc(C(=O)COC(=O)CNC(=O)c2cccs2)cc1C,15.3
5,CN(CCC1CCOCC1)C(=O)CC1C(=O)NCCN1C/C=C/c1ccccc1 (stereo not shown),11.7
6,CCC(=O)OCC(=O)Nc1ncc(C(F)(F)F)cc1Cl,5.88
7,Cc1cccc(C)c1OCC(O)CN.Cl.O (stereo not shown),10.5
8,CCc1nnc(NC(=O)c2ccc(S(=O)(=O)NCC(C)C)cc2)s1,9.59
9,COc1ccccc1N1CCN(c2nc3ccccc3nc2C(C#N)C(=O)OC(C)C)CC1 (stereo not shown),-5.03
10,COC(=O)c1[nH]c2cccc(OC)c2c1NC(=O)CCN1CCSCC1,19.2
11,Cc1cccc(C)c1N1C(=O)CCC(C)(C)C1=O,11.2
12,COc1ccc(CC(=O)OCC(=O)Nc2cccc(Cl)c2)cc1,14.2
13,O=C(COC(=O)CCCN1C(=O)c2ccccc2C1=O)Nc1cc(Cl)cc(Cl)c1,-1.99
14,COCC(C)N=CC1=C(O)CC(C)(C)CC1=O (stereo not shown),12.9
15,c1ccc(CSc2nnc(-c3sccc3-n3cccc3)o2)cc1,2.04
16,Cl.NC(=O)c1c(NC(=O)c2ccccc2)sc2c1CCN(Cc1ccccc1)C2,8.64
17,CNS(=O)(=O)c1cn(CC(=O)NCc2ccc(F)cc2)cc1S(=O)(=O)NC,18.1
18,S=c1[nH]nc(Cc2n[nH]c(=S)n2-c2ccccc2)n1-c1ccccc1,19.7
19,O=C(NCC(=O)N1CCN(c2ccccc2O)CC1)c1ccc2ccccc2c1,7.74
20,C=CCOC(=O)C1=C(C)OC(N)=C(C#N)C1c1ccco1 (stereo not shown),17.6
21,Cc1ccc(NC(=O)C2CCN(S(=O)(=O)c3ccc(Cl)c(C(F)(F)F)c3)CC2)nc1,2.79
22,COc1ccc(-c2cc(C(=O)N3CC(C)CC(C)C3)c3ccccc3n2)cc1 (stereo not shown),16.3

row,Compound,"hERG current change (%, negative = inhibition) at 1uM [%]"
1,COC(=O)c1cn(NC(=O)Cc2c(F)cccc2Cl)c(=O)c2ccccc12,1.62
2,COc1ccc(N=Cc2c(O)n(-c3cccc(C)n3)c(=O)c3ccccc23)c(OC)c1,7.46
3,CCN(CC)CCNC(=O)c1nn(-c2ccc(C)cc2)c(=O)c2c1c1ccccc1n2C,-8.07
4,Cl.O=C(c1ccc(F)cc1)C(CCCCCC(CN1CCOCC1)C(=O)c1ccc(F)cc1)CN1CCOCC1 (stereo not shown),-14
5,CCCCCn1c(S(=O)(=O)O)nc2ccccc21,6.65
6,CNC(=S)Nc1cc(S(=O)(=O)Nc2cc(Cl)ccc2Cl)ccc1N1CCCC1,11.7
7,COC(=O)c1cc(NC(=O)C2CC=CCC2C(=O)O)cc(C(=O)OC)c1 (stereo not shown),11.1
8,CCCCN(C)C(=O)c1ccc(S(=O)(=O)N2CCOCC2)cc1,13.5
9,N#CC1=C(N)Oc2ccc3ccc(O)cc3c2C1c1cccnc1 (stereo not shown),12.2
10,CCOc1ccc(CN2C(=O)c3ccccc3C2=O)cc1C(=O)NC1CC(C)(C)NC(C)(C)C1,12.4
11,CN1CCN(C(=O)/C(=C/c2cn(S(=O)(=O)N(C)C)c3ccccc23)NC(=O)c2ccccc2F)CC1,9.45
12,O=C(N/N=C/c1c(Cl)[nH]c2ccccc12)c1sc2ccccc2c1Cl,12.7
13,O=C(CN1CCN(S(=O)(=O)N2CCOCC2)CC1)Nc1cc(Cl)ccc1Cl,-38.8
14,O=C(CSc1nncs1)NC(=O)NC1CCCC1,18.4
15,COc1ccc(CSc2nc3ccccc3[nH]2)cc1,4
16,CCOC(=O)N1CCN(c2nc(C)cc(C(F)(F)F)n2)CC1,11.2
17,CCC(=O)Nc1cc(-c2nn(C)c(=O)c3ccccc23)ccc1OC,1.7
18,COc1cc(/C=C/C(=O)Nc2ccc(C)cc2)cc(OC)c1OC,9.07
19,COc1ccc(NC(=O)N2CCc3ccccc3C2)cc1,17.1
20,CC(CCc1ccccc1)NC(=O)CN1CCN(Cc2ccccc2)C1=O (stereo not shown),-2.07
21,COC(=O)c1ccc(NC(=O)COc2ccc(S(=O)(=O)N3CCCCC3)cc2)cc1,-0.608
22,O=[N+]([O-])c1ccc(-c2cn3nc(-c4ccccc4)c(-c4ccccc4)nc3n2)cc1,7.84

# From paper PMC4336329 (PLoS ONE, 2015)
